Measurements as given in paper PMC4081560 (PLoS ONE, 2014).
Like-named read-outs stand apart in the source and are kept apart here.

Columns and labels:
[1] = test system: K/09 virus (A/Korea/01/2009); experiment: microbe, parasite or virus in culture; settings: Influenza A virus, MDCK
[2] = target: T1, K/09 virus (A/Korea/01/2009) neuraminidase (NA) (Influenza A virus, UniProt C5MQP8); experiment: biochemical
[3] = target: T1, K/09 virus (A/Korea/01/2009) neuraminidase (NA)

Structure (SMILES): NC(=O)c1nc(F)cnc1O [Favipiravir, 6-fluoro-3-hydroxy-2-pyrazinecarboxamide]
- EC50 [1]: 8390 nM

Structure (SMILES): CCC(CC)O[C@@H]1C=C(C(=O)O)C[C@H](N)[C@H]1NC(C)=O [Oseltamivir carboxylate]
- IC50 [2]: 5.07 nM

Structure (SMILES): CCC(CC)[C@H](NC(C)=O)[C@@H]1[C@H](O)[C@@H](C(=O)O)C[C@H]1N=C(N)N [Peramivir]
- IC50 [3]: 1.38 nM
